The supplement of paper PMC4604168 (melanoma cell lines)
The list shows a part of the results. Many values rest on one well or one pass, so single values are uncertain.

Key:
Assay in all cases: cell count relative to DMSO control; melanoma cells; higher = more viable cells
Settings in all cases: library dose: low library concentration; 72 h
MZ2-MEL = system: MZ2-MEL
MeWo = system: MeWo
RPMI7951 = system: RPMI7951
RVH-421 = system: RVH-421
SkMel28 = system: SkMel28
SkMel30 = system: SkMel30
SkMel5 = system: SkMel5
UACC257 = system: UACC257
UACC62 = system: UACC62
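Further: cell number obtained by counting DAPI-stained nuclei in high-throughput microscope images with image analysis software, screen run in 1,536-well plates.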

SMILES	cell count (MZ2-MEL) [%]	cell count (MeWo) [%]	cell count (RPMI7951) [%]	cell count (RVH-421) [%]	cell count (SkMel28) [%]	cell count (SkMel30) [%]	cell count (SkMel5) [%]	cell count (UACC257) [%]	cell count (UACC62) [%]
Nc1cccc2c1CN(C1CCC(=O)NC1=O)C2=O (stereo not given) [lenalidomide] + COc1ccc2c(c1)CCC1C2CCC2(C)C(NCCCCCCN3C(=O)C=CC3=O)CCC12 [U73122] (first compound 1 µM, partner dose 0.4 µM)	102	112	83.4	113	86.9	83.6	89.2	84.6	92.7
C#Cc1cccc(Nc2ncnc3cc(OCCOC)c(OCCOC)cc23)c1 [erlotinib] + O=S(=O)(c1ccccc1)N(CC(F)(F)F)c1ccc(C(O)(C(F)(F)F)C(F)(F)F)cc1 [T0901317] (first compound 0.8 µM, partner dose 1.4 µM)	95.6	95.9	98.8	93.3	79.8	88	82.4	74.3	91.1
Nc1cccc2c1CN(C1CCC(=O)NC1=O)C2=O (stereo not given) [lenalidomide] + COc1ccc(COc2ccc(Cc3cnc(N)nc3N)cc2OC)cc1 [GW2580] (first compound 1 µM, partner dose 1 µM)	99.5	89.9	104	102	93.2	106	97.8	90.5	80.3
COCC[n+]1c2c(n(Cc3cnccn3)c1C)C(=O)c1ccccc1C2=O + COc1cc2ncnc(Nc3ccc(Oc4ccccc4)cc3)c2cc1OC [SrcI1] (first compound 0.0004 µM, partner dose 2 µM)	54.1	80.4	85.8	114	95.2	88.4	72.5	92.7	99.7
C#Cc1cccc(Nc2ncnc3cc(OCCOC)c(OCCOC)cc23)c1 [erlotinib] + COc1ccc(COc2ccc(Cc3cnc(N)nc3N)cc2OC)cc1 [GW2580] (first compound 0.8 µM, partner dose 1 µM)	92.4	103	104	105	92.1	90.9	103	86	87.4
O=C(CCCCCCC(=O)Nc1ccccc1)NO [vorinostat] + O=C(Nc1ccccc1)c1cc([N+](=O)[O-])ccc1Cl [GW9662] (first compound 0.08 µM, partner dose 2 µM)	95.8	101	110	130	73.9	105	91.7	93.7	79.2
Nc1cccc2c1CN(C1CCC(=O)NC1=O)C2=O (stereo not given) [lenalidomide] + c1cc(-c2cnn3cc(-c4ccc(OCCN5CCCCC5)cc4)cnc23)ccn1 [Dorsomorphin] (first compound 1 µM, partner dose 0.4 µM)	94.9	104	106	114	88.2	134	94.7	74	99.6
Nc1cccc2c1CN(C1CCC(=O)NC1=O)C2=O (stereo not given) [lenalidomide] + COc1cc2ncnc(Nc3ccc(Oc4ccccc4)cc3)c2cc1OC [SrcI1] (first compound 1 µM, partner dose 2 µM)	91.6	102	87.1	116	93	123	109	84.5	98.8
Nc1cccc2c1CN(C1CCC(=O)NC1=O)C2=O (stereo not given) [lenalidomide] + O=C(Nc1ccccc1)c1cc([N+](=O)[O-])ccc1Cl [GW9662] (first compound 1 µM, partner dose 2 µM)	100	94.9	99.2	119	75.6	106	91.8	79.6	83.9
Cn1c(Nc2ccc(C(F)(F)F)cc2)nc2cc(Oc3ccnc(-c4ncc(C(F)(F)F)[nH]4)c3)ccc21 + CCc1ccc(CCOc2ccc(CC3SC(=O)NC3=O)cc2)nc1 [pioglitazone] (first compound 0.08 µM, partner dose 2 µM)	94	71.8	67.2	76.8	64	63.3	71.5	51.3	48.4
O=C(CCCCCCC(=O)Nc1ccccc1)NO [vorinostat] + CCc1ccc(CCOc2ccc(CC3SC(=O)NC3=O)cc2)nc1 [pioglitazone] (first compound 0.08 µM, partner dose 2 µM)	103	93	94.1	100	84.7	106	93.8	91.7	109
Nc1cccc2c1CN(C1CCC(=O)NC1=O)C2=O (stereo not given) [lenalidomide] + COC(=O)c1sccc1S(=O)(=O)Nc1ccc(Nc2ccccc2)cc1OC [GSK0660] (first compound 1 µM, partner dose 1 µM)	97	91.8	102	105	79	120	80.4	85.3	84.4
COCC[n+]1c2c(n(Cc3cnccn3)c1C)C(=O)c1ccccc1C2=O + O=c1cc(-c2cccc3c2Sc2ccccc2S3)oc(N2CCOCC2)c1 [KU55933] (first compound 0.0004 µM, partner dose 1 µM)	54.7	94.2	75.8	149	70.6	98.6	74.4	88.3	94.1
O=C(CCCCCCC(=O)Nc1ccccc1)NO [vorinostat] + COC(=O)c1sccc1S(=O)(=O)Nc1ccc(Nc2ccccc2)cc1OC [GSK0660] (first compound 0.08 µM, partner dose 1 µM)	96.8	105	90.6	97.1	72.5	105	93.2	93.4	84.5
O=C(CCCCCCC(=O)Nc1ccccc1)NO [vorinostat] + CCCCCCCCCCCC1=C(O)C(=O)C=C(O)C1=O [Embelin] (first compound 0.08 µM, partner dose 1.2 µM)	93.3	95.8	87.7	115	116	104	79.3	77.7	106
O=C(CCCCCCC(=O)Nc1ccccc1)NO [vorinostat] + COc1cc2ncnc(Nc3ccc(Oc4ccccc4)cc3)c2cc1OC [SrcI1] (first compound 0.08 µM, partner dose 2 µM)	92.9	95.1	110	108	86.9	86.9	96.9	94.6	96.8
COCC[n+]1c2c(n(Cc3cnccn3)c1C)C(=O)c1ccccc1C2=O + CCc1ccc(CCOc2ccc(CC3SC(=O)NC3=O)cc2)nc1 [pioglitazone] (first compound 0.0004 µM, partner dose 2 µM)	56.2	97.4	80	135	76.6	113	72.3	91.3	79.6
COCC[n+]1c2c(n(Cc3cnccn3)c1C)C(=O)c1ccccc1C2=O + COc1ccc2c(c1)CCC1C2CCC2(C)C(NCCCCCCN3C(=O)C=CC3=O)CCC12 [U73122] (first compound 0.0004 µM, partner dose 0.4 µM)	77.6	101	88.5	97.6	98.3	80.3	87.4	96.6	108
Nc1cccc2c1CN(C1CCC(=O)NC1=O)C2=O (stereo not given) [lenalidomide] + O=C1NC(=O)/C(=C/c2ccc(-c3ccc(F)cc3O)o2)S1 [AS252424] (first compound 1 µM, partner dose 1 µM)	94.8	102	107	99.5	104	105	99.9	112	102
O=C(CCCCCCC(=O)Nc1ccccc1)NO [vorinostat] + Oc1nc(-c2ccc(C(F)(F)F)cc2)nc2c1CSCC2 [XAV939] (first compound 0.08 µM, partner dose 2 µM)	90.7	88.4	60.1	98.8	61.7	89.7	70.1	74.8	98.3
O=C(CCCCCCC(=O)Nc1ccccc1)NO [vorinostat] + COc1cc(N2CCC(N3CCN(C)CC3)CC2)ccc1Nc1ncc(Cl)c(Nc2ccccc2S(=O)(=O)C(C)C)n1 [NVP-TAE684] (first compound 0.08 µM, partner dose 0.08 µM)	101	99.6	102	119	86	77.5	86.1	91	91.9
C#Cc1cccc(Nc2ncnc3cc(OCCOC)c(OCCOC)cc23)c1 [erlotinib] + Cn1cc(/C=C2\C(=O)Nc3cccnc32)c2ccccc21 [GW441756] (first compound 0.8 µM, partner dose 0.4 µM)	88	91.6	92.2	99.1	86	97.9	84.2	80	94.7
COCC[n+]1c2c(n(Cc3cnccn3)c1C)C(=O)c1ccccc1C2=O + Oc1cc(-c2nc(-c3ccccc3)[nH]c2-c2ccncc2)ccc1Cl [L779450] (first compound 0.0004 µM, partner dose 0.2 µM)	31.4	90.1	77.1	84.5	80.3	121	74.2	89.3	78.9
Cn1c(Nc2ccc(C(F)(F)F)cc2)nc2cc(Oc3ccnc(-c4ncc(C(F)(F)F)[nH]4)c3)ccc21 + O=C(Nc1ccccc1)c1cc([N+](=O)[O-])ccc1Cl [GW9662] (first compound 0.08 µM, partner dose 2 µM)	77.3	80.9	70	75.2	58.3	62	73.7	39.2	54.7
O=C(CCCCCCC(=O)Nc1ccccc1)NO [vorinostat] + COc1ccc(-c2ccc3c(N4CCOCC4)nc(N4C[C@@H](C)O[C@@H](C)C4)nc3n2)cc1CO [KU0063794] (first compound 0.08 µM, partner dose 0.02 µM)	89.8	89.7	89	119	101	103	82	82.4	101
